The labels stand for the following.
B1: LINE1-mini (parent)
chain: GGCAGAGCUCAACACAGCGUGGCAAAGUGGCUGUGGCUAGACUGCC

The source gives no read counts; variants with many changes may rest on few reads.

In the data set the parent is B1. Kind of data set: self-cleavage, relative activity (ratio to wild type); higher = more cleavage; in vitro, sequencing; the parent is a self-cleaving ribozyme.
In the case of U9C C23U C46G, the self-cleavage was 0.01.

As for C18U A24C G27C, the self-cleavage was 0.07.

Take G5A C8A U9C C15A U38C: the self-cleavage was 0.04.

On to C18U U20G C37A, for which the self-cleavage stood at 0.02.

On to G5U C10U G27U C31A C37A G44A, for which the self-cleavage was determined as 0.01.

As to A6G G27A C37U, the self-cleavage was 0.01.

Consider A6C C10A G17U U38A, for which the self-cleavage amounted to 0.01.

As for G5C A16C A39C, the self-cleavage was found to be 0.04.

With G1A G40A C45U, the self-cleavage was determined as 0.33.

Regarding A6G C18G A39G, the self-cleavage was determined as 0.03.

For the variant A11C A14U C18U A24U C46U, the self-cleavage was found to be 0.03.

As to G7U A24C U32C U38G, the self-cleavage amounted to 0.02.

On to A6C A14C G22U C46U, for which the self-cleavage stood at 0.09.

For U9A C18A C45U, the self-cleavage was 0.1.

Take A4G C13A C15G G30U: the self-cleavage amounted to 0.03.

On to G5C C18A A39C, for which the self-cleavage turned out to be 0.02.

Consider G2A C3A G5U C31A, for which the self-cleavage came to 0.4.

Turning to C3U C13A U34A, the self-cleavage came out at 0.03.

In the case of A4C C8A U9C A24U U38A, the self-cleavage stood at 1.36.

As for C3A C18G G21U, the self-cleavage turned out to be 0.18.

Consider G21U G27C U28G G40C U43A, for which the self-cleavage is 0.1.

With A25C G30U C37U, the self-cleavage is 0.05.

Regarding C13A G35C C42U, the self-cleavage amounted to 0.02.

As for A6C G30U U43C, the self-cleavage was 0.04.

For the variant G5U G27A G33A, the self-cleavage was 0.05.

For A25U C37A U38G, the self-cleavage was found to be 0.01.

For the variant A4U C10G A16G C18G C46A, the self-cleavage worked out at 0.03.

As for G5U C15U G29A G30U, the self-cleavage was 0.06.

Turning to A11G G36C C37U C46G, the self-cleavage worked out at 0.02.

In the case of A4G A11C G30C C37U, the self-cleavage worked out at 0.03.

For U20A C31A U34G G44C, the self-cleavage is 0.02.

A26C G29A G30U: the self-cleavage turned out to be 0.29.

In the case of A12U C15A U20C G22C G27U, the self-cleavage was found to be 0.08.

Consider G7U G33C C42G, for which the self-cleavage turned out to be 0.08.

For U28A U32G C37A A41U, the self-cleavage was 0.03.

U9G C18A A25C A39C: the self-cleavage was 0.03.

For the variant C3G G7U C13G C23A G30A U34C G40A, the self-cleavage turned out to be 0.13.

With G1C C8U U9A A41G, the self-cleavage came to 0.03.

Consider A16G U28C G30A C45A, for which the self-cleavage was 0.39.

Consider C15U G35A C37G, for which the self-cleavage is 0.05.

Take A6C G21A C45U: the self-cleavage was 0.65.

In the case of C8A G19A C46G, the self-cleavage was found to be 0.07.

U32C C37A G44U: the self-cleavage turned out to be 0.02.

Regarding G19U G21U C45G, the self-cleavage is 0.03.

In the case of C10U C23A C31G, the self-cleavage came to 0.04.

For the variant A14G C15U U20C G21C A25C A26G, the self-cleavage was 0.1.

On to A4G G7U A24C G30U, for which the self-cleavage amounted to 0.03.

As to C13A G36U U43C, the self-cleavage was determined as 0.02.

Take G7A C23A C37A: the self-cleavage amounted to 0.02.

Consider A24U A25C G29C C31U G44C, for which the self-cleavage amounted to 0.17.

In the case of A24U A26C U28A G35A G36U C37U, the self-cleavage came to 0.02.

Take A6U C23U G33A G40C: the self-cleavage was 0.39.

Consider G29A G40C C46U, for which the self-cleavage is 0.01.

On to G1U G19U C31A, for which the self-cleavage is 0.03.

Consider A16C A25G U32G, for which the self-cleavage amounted to 0.1.

For the variant A14G G19A G29C, the self-cleavage is 0.39.

G7U A24G A25C G29U C42U: the self-cleavage amounted to 0.03.

Consider A14U C23U U38G C46G, for which the self-cleavage stood at 0.03.

In the case of G5U A12U A25U, the self-cleavage was found to be 0.06.

Consider G2A G36A U43A, for which the self-cleavage stood at 0.04.

For the variant G2C A6G A11C C15A, the self-cleavage came to 0.01.

Regarding U9G C13G G17A G21U G35A C37G, the self-cleavage was 0.08.

As for A11U C18U C46G, the self-cleavage is 0.05.

G22U C37U C46A: the self-cleavage is 0.06.

On to C10A G17C C23A, for which the self-cleavage worked out at 0.04.

With G1A A14G A25U C31A U34A C37A, the self-cleavage worked out at 0.01.

Consider G1U C8U A16G G30C A39C, for which the self-cleavage stood at 0.09.

In the case of C18A G33A C42A U43C, the self-cleavage worked out at 0.04.

In the case of A11C G30C G33A, the self-cleavage was found to be 0.03.

Turning to G2C A6C C31G A39G, the self-cleavage is 0.03.

Take A4U U34G G35U: the self-cleavage turned out to be 0.05.

In the case of A14G A25C C37U, the self-cleavage was found to be 0.02.

With G2C G7A C10G, the self-cleavage worked out at 0.04.

As to A6C C8A A26C U43A, the self-cleavage came out at 0.15.

For the variant G7U C8U C18A G22A U28G, the self-cleavage worked out at 0.2.

As to C13U G30U C46G, the self-cleavage came to 0.04.

Regarding G1C C13A G17A A26G, the self-cleavage turned out to be 0.02.

Regarding G1U A6C G29A, the self-cleavage was determined as 0.1.

For the variant G2U U20C A41C, the self-cleavage was determined as 0.02.

Consider G2U A25U G35U C42G G44A, for which the self-cleavage is 0.02.

Turning to G17A C18U U32G G35A A41U, the self-cleavage was 0.04.

Consider A11C G19U C37U, for which the self-cleavage amounted to 0.02.

A11C C18U C23U C42U: the self-cleavage was 0.

For G5A A11C C18A, the self-cleavage was found to be 0.05.

As to C3A A6G U9C C18U C23A U34A, the self-cleavage amounted to 0.01.

With U9A C31A G36C C45A C46A, the self-cleavage came to 0.1.

With G5C A26G G35U, the self-cleavage was determined as 0.05.

Regarding C8A A24U C31U U32C U38G, the self-cleavage stood at 0.11.

Regarding G1U A14U G19A, the self-cleavage is 0.08.

On to A25C G40C U43A, for which the self-cleavage came to 0.02.

Regarding U9G C31A C42U, the self-cleavage turned out to be 0.02.

For the variant A24C C31U G33A, the self-cleavage was found to be 0.03.

As for U9A A14C C15A C37A, the self-cleavage worked out at 0.06.

Turning to C3G G21A G22C C23G, the self-cleavage turned out to be 0.23.

With A11U A12G G35U, the self-cleavage was found to be 0.

In the case of G17U G19U A25U, the self-cleavage is 0.34.

Take C15G G19A G35C U38C: the self-cleavage worked out at 0.01.

Regarding C31G G36C U43A, the self-cleavage worked out at 0.

Turning to A6C G40U U43C, the self-cleavage is 0.12.

As for C8G C10U U34G G40C, the self-cleavage was found to be 0.

As to G21C G33A G35A G36A, the self-cleavage is 0.05.

For the variant G2U C8A C10U A16C G36U A39C, the self-cleavage is 0.02.

With G2U C3U G27C G36U A41C, the self-cleavage stood at 0.03.

Take C8A G22A G33A U34C G36U A41C: the self-cleavage was found to be 0.01.

In the case of C8A G36U U43G, the self-cleavage turned out to be 0.03.

For C10A A14U G22U G35C, the self-cleavage was determined as 0.01.

With C3U G30U G33U G35U, the self-cleavage came out at 0.03.

Take C10A G17C C45U: the self-cleavage was found to be 0.03.

Turning to U9A C10U G29A, the self-cleavage came to 0.04.

Take A6U C10A G19U C31U: the self-cleavage came to 0.04.

On to G7A C18A G35U C45A, for which the self-cleavage turned out to be 0.05.

As for C3A G17A G40A, the self-cleavage was determined as 0.18.

In the case of A4U A6U U9A C31A, the self-cleavage was determined as 0.06.

Turning to A6G U9G A25G G40A, the self-cleavage is 0.03.

With A6U G35U G36A C37U, the self-cleavage is 0.72.

Turning to A14G A24U C46U, the self-cleavage stood at 0.38.

For the variant C3G A4G A12U G17U G29U, the self-cleavage is 0.1.

For G1U C15A G21U G27A G36A, the self-cleavage amounted to 0.02.

As to A6G A11U A26C U38A A39G, the self-cleavage was determined as 0.

Turning to A12G C23A A39U G40C, the self-cleavage was found to be 0.07.

Turning to C23A A25U A26C, the self-cleavage turned out to be 1.

Consider C3U A26U U38G, for which the self-cleavage amounted to 0.03.

Turning to G17U U20G G27A C37U, the self-cleavage stood at 0.02.

Regarding C18A G19C G33U, the self-cleavage was determined as 0.02.

As to A6G C10A G30A G33U A41U, the self-cleavage was found to be 0.03.

For the variant G1A C3G A16C G29U A39C, the self-cleavage turned out to be 0.52.

With G2U U9A G17C U34A, the self-cleavage turned out to be 0.04.

For A16U A24G G30A U34G C46U, the self-cleavage amounted to 0.08.

As for C13A G17U G40U A41U, the self-cleavage was 0.44.

For C10G C37A C45A, the self-cleavage amounted to 0.01.

As to G1U A11C G22U G36A, the self-cleavage was 0.02.

Turning to A16C G17U A25G C31U G40U, the self-cleavage turned out to be 0.01.

For the variant A4G U9A A14U C18G G35C G44C, the self-cleavage was found to be 0.01.

Regarding A4U C13U U20A, the self-cleavage came out at 0.02.

With G2C U9G C13A C18A, the self-cleavage is 0.02.

For the variant C10U A11G U43C, the self-cleavage was 0.01.

Turning to A4U A12U C37G G40U, the self-cleavage is 0.01.

A25U A26U C31G A39U A41U: the self-cleavage was 0.03.

For the variant A25C G27C G29A G35A G40C, the self-cleavage came to 0.05.

On to G5U G22C C31A, for which the self-cleavage was found to be 0.05.

For the variant G19A G27A G33U, the self-cleavage turned out to be 0.44.

As to G17A U34G C45G, the self-cleavage was 0.03.

As for G5U G19A G35A, the self-cleavage was 0.1.

Regarding C13A G22A C42A C46G, the self-cleavage is 0.08.

Turning to G22C U34A C42U, the self-cleavage is 0.06.

For the variant A14U G40A C46A, the self-cleavage is 0.04.

As for C15A G19A G27U G40C, the self-cleavage came out at 0.06.

For G1C G5A C18A U20G G29A C42G, the self-cleavage turned out to be 0.03.

Regarding C3U G7U A14C G17A, the self-cleavage is 0.19.

In the case of C18G G21U A25G A41U U43A C46A, the self-cleavage is 0.02.

Turning to C37G A41G C42U G44A, the self-cleavage worked out at 0.04.

Consider G21U C42A C46A, for which the self-cleavage is 0.06.

As to G5U G22A C23A, the self-cleavage turned out to be 0.02.

On to G5A G7A C42A, for which the self-cleavage came out at 0.1.

As for G1U G5A C10G A12G G27U U28A, the self-cleavage is 0.

Regarding U28A U43C G44C C45G, the self-cleavage was found to be 0.03.

Turning to G17A C23A A24U G27U C31U U32G, the self-cleavage was 0.02.

As to A4U A6C C45A, the self-cleavage is 0.05.

As to G5U A25U G35A G36U C37A, the self-cleavage came to 0.09.

For G2C A11G U43A, the self-cleavage is 0.

Regarding C3U A25U G29A C45G, the self-cleavage worked out at 0.12.

As for G1U G2A A16G A25C U28G G30A, the self-cleavage amounted to 0.03.

With A4G C10A A25C G30C G33U G35U, the self-cleavage came out at 0.04.

Consider G1C A24G G33U U34G, for which the self-cleavage came to 0.04.

Consider C13U A16G G22A U34G, for which the self-cleavage came to 0.04.

With A12C G33U C42U, the self-cleavage came out at 0.02.

On to C8A G19C G29C, for which the self-cleavage was determined as 0.06.

(Values after the RNAGym collection of RNA variant scans (doi:10.7554/elife.90254).)
